The values below come from US20220023399A1, “BLOOD COMPONENT POTENTIATION OF LYTIC PROTEIN ANTI-BACTERIAL ACTIVITY AND METHODS AND USES THEREOF” (priority 2017, published 2022).

For the data set, the system named is S. aureus strain MW2. As to the kind of experiment: Lytic assay (loss of optical density) and specific activity. The settings on record: CF-301 4 μg/mL in phosphate buffer. On the procedure: The effect of HuLYZ and HSA on PlySs2 (CF-301) activity was examined using additional formats. First, the time-kill assay was used to combine a sub-MIC amount of PlySs2 (CF-301) with a range of HuLYZ concentrations from 1-35 μg/mL (FIG. 8A). While HuLYZ alone has no anti-staphylococcal activity (21), the concentration in human blood is reported to vary between 1 and 35 μg/mL (22). At HuLYZ concentrations above 5 μg/mL a synergistic interaction was detected based on ≥2-log 10 CFU/mL reductions at 24 hours for the combinations compared to PlySs2 (CF-301) alone. In a second in vitro assay based on loss of optical density in a treated culture, the addition of both HuLYZ (FIG. 8B) and HSA (FIG. 8C) across a range of concentrations stimulated high-level PlySs2 (CF-301) activity. […] The lytic assay also serves as the basis for determining PlySs2 (CF-301) specific activity (4). […] If HuLYZ and HSA are added together, the fold increase in PlySs2 (CF-301) activity is 25%.
• Assay performed using a fixed concentration of CF-301 (4 μg/mL) in phosphate buffer, with the indicated supplements, against S. aureus strain MW2.
Lytic assays. Overnight cultures of MRSA strain MW2 were diluted 1:100 in BHI and grown for 2.5 hours at 37° C. with aeration. The exponential phase cells were washed, concentrated 10-fold in 20 mM phosphate buffer (pH 7.4), and split in equal aliquots to which either HSA (Albumin Biosciences) or human neutrophil-derived lysozyme (AVIVA Bioscience) over a range of concentrations was added. For each concentration of HSA or lysozyme, 0.1 mL of the mixture was aliquoted in duplicate to a 96-well, flat-bottom, non-tissue culture treated microtiter plates (BD). The lytic reaction was then started by adding to all wells 0.1 mL PlySs2 (CF-301) (in phosphate) to a final concentration of 4 μg/mL. Control wells were included with PlySs2 (CF-301), HSA, or HuLYZ alone at appropriate concentrations. Samples were mixed and optical density at 600 nm (OD600) was followed for 15 minutes at room temperature in a SpectraMax M5 Microplate Reader (Molecular Devices).
A variation of the lytic assay was performed to determine PlySs2 (CF-301) specific activity. Exponential phase MW2 cells were prepared as above and divided in 4 mL aliquots containing either phosphate buffer (reactions without agents added, with cells alone) or HSA (Albumin Biosciences) and/or human lysozyme (AVIVA Bioscience). The PlySs2 (CF-301) (starting at 0.5 mg/mL) was 2-fold serially diluted across columns 1 through 11 of a 96 well plate with 20 mM Phosphate pH 7.4 at a volume of 0.1 mL. Column 12 contained no enzyme, only buffer, and was used as assay control well. Bacterial cells mixed with either buffer, HSA, lysozyme or HSA combined with HuLYZ were added as 0.1 mL aliquots to each well of three rows of serially diluted PlySs2 (CF-301). Each plate was read at 600 nm for 15 minutes (shaking for 3 seconds between reads) at room temperature using a microplate reader as above. The specific activity in Units/mg of PlySs2 (CF-301) was determined based on the PlySs2 (CF-301) dilutions displaying curves just above and below the optical density that is 50% of the buffer control at 15 minutes.

B1: PlySs2 (CF-301): antistaphylococcal lysin from a Streptococcus suis prophage; N-terminal CHAP domain, C-terminal SH3-type binding domain; SEQ ID NO:3 (protein, listed as Streptococcus suis)
chain: MTTVNEALNNVRAQVGSGVSVGNGECYALASWYERMISPDATVGLGAGVGWVSGAIGDTISAKNIGSSYNWQANGWTVSTSGPFKAGQIVTLGATPGNPYGHVVIVEAVDGDRLTILEQNYGGKRYPVRNYYSAASYRQQVVHYITPPGTVAQSAPNLAGSRSYRETGTMTVTVDALNVRRAPNTSGEIVAVYKRGESFDYDTVIIDVNGYVWVSYIGGSGKRNYVATGATKDGKRFGNAWGTFK
Take B1: the “Specific Activity” value (supplement HuLYZ, 10 μg/mL) is listed as 32066 Units/mg; the “Specific Activity” value (supplement rHSA, 4%) is listed as 43067 Units/mg; the “Specific Activity” value (supplements rHSA, HuLYZ) is 18711 Units/mg; the “Specific Activity” value (supplements: None) is listed as roughly 2500 Units/mg; the “Specific Activity” value (supplements: None, listed as CF-301) stood at 2419 Units/mg.
